The whole screen tested about 310,000 compounds, of which about 14,000 (4.5%) showed an effect of 50% or more. The effect is printed as a negative number. This is one part of the list.
Target: human ether-à-go-go-related gene (hERG) potassium channel (human, UniProt Q12809)
Assay: primary screen, population patch clamp on CHO cells stably expressing hERG
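Note: peak tail current of the secondary pulse compared with the same well before compound.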

human ether-à-go-go-related gene (hERG) potassium channel, sequence (Q12809 whole entry, looked up): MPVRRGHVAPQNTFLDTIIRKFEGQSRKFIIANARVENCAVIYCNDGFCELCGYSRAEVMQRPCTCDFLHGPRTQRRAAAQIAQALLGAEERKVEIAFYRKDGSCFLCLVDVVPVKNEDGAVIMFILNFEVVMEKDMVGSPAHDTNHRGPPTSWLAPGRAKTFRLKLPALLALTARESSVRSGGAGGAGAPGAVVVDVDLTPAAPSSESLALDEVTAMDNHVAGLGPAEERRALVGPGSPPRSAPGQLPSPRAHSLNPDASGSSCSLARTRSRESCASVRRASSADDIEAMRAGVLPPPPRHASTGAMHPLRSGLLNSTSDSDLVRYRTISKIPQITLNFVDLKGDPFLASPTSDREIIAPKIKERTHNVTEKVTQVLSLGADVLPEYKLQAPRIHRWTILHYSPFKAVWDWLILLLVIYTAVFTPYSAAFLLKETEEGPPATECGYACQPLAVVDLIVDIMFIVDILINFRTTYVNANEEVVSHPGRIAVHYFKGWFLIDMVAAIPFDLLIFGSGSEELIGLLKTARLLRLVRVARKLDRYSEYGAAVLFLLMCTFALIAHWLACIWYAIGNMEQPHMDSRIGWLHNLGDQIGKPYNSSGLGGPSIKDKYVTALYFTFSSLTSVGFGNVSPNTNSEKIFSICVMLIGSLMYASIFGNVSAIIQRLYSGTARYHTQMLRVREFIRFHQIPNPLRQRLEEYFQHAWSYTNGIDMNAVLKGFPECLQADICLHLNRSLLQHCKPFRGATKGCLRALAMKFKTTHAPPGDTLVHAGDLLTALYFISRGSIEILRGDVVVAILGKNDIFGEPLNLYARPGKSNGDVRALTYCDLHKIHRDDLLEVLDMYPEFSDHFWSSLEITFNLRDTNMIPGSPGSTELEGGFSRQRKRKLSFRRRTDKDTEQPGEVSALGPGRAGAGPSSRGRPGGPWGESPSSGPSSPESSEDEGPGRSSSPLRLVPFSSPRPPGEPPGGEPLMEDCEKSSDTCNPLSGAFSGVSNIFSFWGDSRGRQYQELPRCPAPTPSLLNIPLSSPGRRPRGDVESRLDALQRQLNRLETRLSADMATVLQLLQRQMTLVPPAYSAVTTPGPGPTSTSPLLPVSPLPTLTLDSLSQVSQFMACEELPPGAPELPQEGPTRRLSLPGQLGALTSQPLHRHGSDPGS

| Compound | hERG current change (%, negative = inhibition) at 10uM [%] |
| --- | --- |
| Cc1ccnc(N2C(=O)OC(C)(C)C2(C)O)c1 (stereo not shown) | 0.00718 |
| N/C(=N\c1nc(CSc2nc3ccccc3s2)cc(=O)[nH]1)Nc1ccc(F)cc1 | 8.33 |
| CCNC(=O)C(C)Sc1ccc(Cl)cc1 (stereo not shown) | 4.22 |
| CCCS(=O)(=O)c1c(S(=O)(=O)CCC)c2c3ccccc3ccn2c1C(N)=O | -18.7 |
| COc1ccc(NC(=O)NC2CCCc3ccccc32)cc1OC (stereo not shown) | 9.56 |
| O=C1CCc2cc(S(=O)(=O)N3CCC(C(=O)NCc4ccccn4)CC3)ccc2N1 | 16.9 |
| NC(=NCCc1c[nH]c2ccccc12)NS(=O)(=O)c1ccc2ccccc2c1 | 14.8 |
| Cc1ccc2c(c1)sc1ncc(NC(=O)c3ccc(F)cc3)c(=O)n12 | 12.7 |
| COCc1cc(=O)[nH]c(SCC(=O)N2CCOCC2)n1 | 24 |
| Cc1cc(NC(=O)c2noc3c2CCCC3)n(-c2ccccc2)n1 | -20.4 |
| O=C(Nc1ccc(Cl)c(C(F)(F)F)c1)C1CCCN(S(=O)(=O)c2cnc[nH]2)C1 (stereo not shown) | -16 |
| COc1cccc(CN2CCNC(=O)C2CC(=O)NCCN2CCOCC2)c1OC (stereo not shown) | -2.05 |
| COc1ccc(C(=O)N=c2sc3c(C)ccc(OC)c3n2C)cc1 | 6.32 |
| CO/N=C(\C)c1ncc(C(F)(F)F)cc1N1CCOCC1 | 25.9 |
| COc1cc2c(cc1NC(=O)CSc1ccc(C)cc1)oc1ccccc12 | -5.57 |
| Cc1ccc(C)c(C(C)NC(=O)CC#N)c1 (stereo not shown) | 11.5 |
| O=C(Oc1c(-c2ccco2)oc2ccccc2c1=O)c1cccnc1 | 8.68 |
| O=C(Nc1cccnc1)c1ccc(Cl)cc1[N+](=O)[O-] | 8.31 |
| Cc1ccc(C)c(N2C(=O)CC(Cc3ccc(Cl)cc3)C2=O)c1 (stereo not shown) | -4.11 |
| CN(C(=S)NC(=O)c1ccccc1)c1c(N)n(Cc2ccccc2)c(=O)[nH]c1=O | 0.51 |
| Cc1ccccc1CSc1ncc(C#N)c(N)n1 | -3.68 |
| c1ccc(C2=Nn3c(nnc3-c3cccs3)SC2)cc1 | 3.43 |

| Compound | hERG current change (%, negative = inhibition) at 10uM [%] |
| --- | --- |
| Cc1cccc(C2=NNC(=O)C(c3ccc(Cl)cc3)C2)c1 (stereo not shown) | 3.78 |
| COc1ccc(C(CN(C)C)C2(O)CCCCC2)cc1.Cl (stereo not shown) | -4.05 |
| Cc1cccc(NC(=O)CSc2nc3ccccc3c3nc(CCc4c(C)n[nH]c4C)nn23)c1 | -9.44 |
| Cc1nnc(SCC(=O)N/N=C/c2ccc(-c3ccc(C)c(Cl)c3)o2)s1 | -1.51 |
| Cc1ccc(-n2c(SCC(=O)NCCN3C(=O)CSC3=O)nnc2-c2cccc(C)c2)cc1 | -42 |
| CN(C)c1cccc(N=C2C=C(N3CCOCC3)CC(C)(C)C2)c1 | -60.5 |
| CCN(CC(=O)NCc1cccs1)S(=O)(=O)c1ccc(C(C)C)cc1 | -53.3 |
| Cc1nn(CC(=O)NC(C)C)c(C)c1[N+](=O)[O-] | 3.85 |
| CCOC(=O)c1nc(S(C)(=O)=O)ncc1Cl | 9.56 |
| Cc1cccc(NC(=O)C2CCN(S(=O)(=O)c3ccc4c(c3)OCCCO4)CC2)n1 | -17.3 |
| Cc1ccc2c(c1)N(C(=O)CCC(=O)NC1CCCCCC1)CC(C)O2 (stereo not shown) | -18.5 |
| O=C(CSCc1ccc(Cl)cc1Cl)Nc1ccccc1C(=O)Nc1ccc(C(=O)O)cc1 | 10.3 |
| COc1cccc(-c2nc(CS(=O)(=O)CC(=O)NC3CCC(C)CC3)c(C)o2)c1 (stereo not shown) | -15.9 |
| COC(=O)CNC(=O)COC(=O)c1cc(SC)ccc1Cl | 20.9 |
| Cc1cccc(-n2nc3c(c2NC(=O)CCC2CCCCC2)CS(=O)C3)c1C (stereo not shown) | -10.2 |
| Br.CCSC1=NCN(CCCC(=O)O)CN1 | 10.9 |
| CCCCn1c(N)c(N(C)C(=O)c2ccccc2Oc2ccccc2)c(=O)[nH]c1=O | 8.41 |
| CCC1Oc2ccc(C)cc2N(CC(=O)NCC2CCCO2)C1=O (stereo not shown) | 12.5 |
| O=C(Nc1nc2nc(-c3ccccc3)cc(-c3ccccc3)n2n1)c1ccco1 | -44.8 |
| CCCCn1c(N)c(N(CCOC)C(=O)COC(=O)CCOc2ccccc2C)c(=O)[nH]c1=O | 21.4 |
| NS(=O)(=O)c1ccc(CCNC(=O)CNC(=O)Cc2cccc3ccccc23)cc1 | 28.5 |
| O=C(O)c1ccccc1P(=O)(c1ccccc1)c1ccccc1 | 12.9 |

| Compound | hERG current change (%, negative = inhibition) at 10uM [%] |
| --- | --- |
| CCOc1ccc(N(CC(=O)Nc2cccc(OC)c2)S(C)(=O)=O)cc1 | -1.16 |
| CCCCOc1c(Br)cc(/C=C2\N=C(C)OC2=O)cc1OCC | 6.14 |
| COc1ccc(-c2cc(OC(=O)c3ccc(F)cc3)c3c(C)oc(C)c3c(=O)c2)cc1 | 4.01 |
| Cc1onc(-c2c(F)cccc2Cl)c1C(=O)NCCCN1CCOCC1 | 1.76 |
| COc1ccc(N2CCN(C(=O)c3ccc(CNS(=O)(=O)c4cc(C)ccc4C)cc3)CC2)cc1 | -11 |
| NS(=O)(=O)c1ccc(CCNC(=O)NC23CC4CC(CC(C4)C2)C3)cc1 | 0.713 |
| O=C(CCCCC(=O)NCCc1ccccc1)NCCc1ccccc1 | 15.6 |
| CN(C)C(=O)c1ccc(NC(=O)c2ccc(-c3ccc(Cl)cc3)o2)cc1 | -28.2 |
| COc1cc(/C=C2\CCCc3c2nc2ccccc2c3C(=O)O)cc(Cl)c1O | 4.11 |
| CCCCCOc1ccc(C(=O)C(c2ccccc2)N2CCOCC2)cc1.Cl (stereo not shown) | 3.16 |
| CCc1c(C)sc(NC(=O)C2CCCCC2C(=O)O)c1C(N)=O (stereo not shown) | 14.3 |
| Cc1ccc(Cn2c(C3CCCN3c3nc(C)cs3)nc3cc(C(=O)NCCCO)ccc32)cc1 (stereo not shown) | -17.5 |
| CCCCOc1cccc(C2/C(=C(\O)c3ccc4c(c3)OCCO4)C(=O)C(=O)N2CCN2CCOCC2)c1 (stereo not shown) | 19.5 |
| CCOC(=O)c1[nH]c2cc3c(cc2c1NC(=O)CN1CCCCC1C)OCO3 (stereo not shown) | -42.7 |
| COc1ccc(N2CCN(C(CNC(=O)C(=O)NCC(OC)OC)c3ccco3)CC2)cc1 (stereo not shown) | 15.6 |
| O=[N+]([O-])c1cccc(S(=O)(=O)Nc2ccc(-c3ccc(N4CCOCC4)nn3)cc2)c1 | -25.6 |
| CCCNC(=O)C(=O)N/N=C/c1cccs1 | 18.1 |
| COc1ccccc1OCc1nnc(SCC(=O)N2CCCCC2)n1-c1ccccc1 | -23.7 |
| Cc1noc(C)c1-c1nnc(-c2ccc(C(F)(F)F)cc2)o1 | 4.76 |
| COc1ccc(S(=O)(=O)Cc2ccc(C(=O)NCc3ccccc3)o2)cc1 | -14.3 |
| COc1ccc(Cl)cc1-c1nc(SCC(=O)NC(C)C)n[nH]1 | -9.03 |
| C=C(C)CSc1nnc(-c2ccc(OC)c(OC)c2)n1N | -7.69 |

| Compound | hERG current change (%, negative = inhibition) at 10uM [%] |
| --- | --- |
| CN(CCOc1ccc(Cl)cc1)C(=O)C1CCN(C(=O)c2ccc(F)cc2)CC1 | -69.9 |
| O=C(CCC(=O)OCc1ccc(Cl)cc1)Nc1cccc([N+](=O)[O-])c1 | -25.1 |
| O=C(c1c(O)c2ccccc2oc1=O)C1CCCCC1 | 14.3 |
| O=C(COc1ccc2c(c1)OCO2)Nc1cccc(F)c1 | 19.8 |
| Cc1cc(C(=O)OCC(=O)N2CC(C)OC(C)C2)c2ccccc2n1 (stereo not shown) | -15.7 |
| Br.C=CCN1C(c2ccccc2)=CS/C1=C(/C#N)c1nnc(N2CCOCC2)n1-c1ccccc1 | -12.4 |
| CCCCCCOc1ccc(C(=O)O)cc1C#N | 13.5 |
| COc1ccccc1CN(C)C(=O)c1cnc(C)cn1 | 19 |
| CC(=O)N1CCN(Cc2nc3cc(NC(=O)Nc4ccccc4)ccc3n2C)CC1 | 20.6 |
| O=C(/C=C1\NC2(CCCC2)Cc2ccccc21)C(=O)N/N=C/c1ccccc1O | 19.1 |
| CCC(C)[C@H](NC(=O)OC(C)(C)C)C(=O)N/N=C/c1ccc2cc(OC)ccc2n1 (stereo partly shown) | -13.7 |
| Cn1cnnc1SCC(=O)NNC(=O)COc1ccc(Br)cc1 | -10.6 |
| Cc1cc(C(=O)CSc2cccc[n+]2[O-])c(C)n1-c1ccc(Br)cc1 | -68.6 |
| CC1(C(=O)NC2CCCC2)CCC(=O)N1Cc1cccs1 (stereo not shown) | 1.82 |
| CC(C)CC(=O)NC(=S)Nc1ccc(S(=O)(=O)N2CCCC2)cc1 | 35.2 |
| O=C(CSc1nc(=O)n2ccccc2n1)NCc1ccccc1Cl | -4.75 |
| CC(C)c1nnc(NC(=O)C2CCN(C(=O)c3ccco3)CC2)s1 | 0.275 |
| C=CCn1c(CNC(=O)c2ccco2)nnc1SCC(=O)c1ccccc1 | 2.5 |
| CCOC(=O)COc1ccc(C(=O)CC)cc1OC | 22.5 |
| CCCCn1c(-c2ccc(OC(F)F)cc2)nc2c1c(=O)[nH]c(=O)n2CC(C)C | -15.9 |
| Cc1ccc(NC(=O)Nc2ccc3c(c2)CCC3)cc1 | -37.5 |
| O=C(NCCc1c[nH]c2ccccc12)c1ccc(F)cc1F | 5.94 |
